Reference: patent EP4737479A1 (Bio-Thera Solutions, Ltd., dated 2026)
Blank lines part the entries; values can stand above or below the binder they belong to.

Target: T1, antigen 4-1BB (Sino Biological, Cat. No. 10041-H08H) (UniProt Q07011 24-186)
T1 construct: Bought protein used as SPR analyte; also called CD137
Assay: SPR (Biacore T200), sample captured on the chip by Fc, 4-1BB as analyte

T1 sequence (Q07011 24-186 limits assumed): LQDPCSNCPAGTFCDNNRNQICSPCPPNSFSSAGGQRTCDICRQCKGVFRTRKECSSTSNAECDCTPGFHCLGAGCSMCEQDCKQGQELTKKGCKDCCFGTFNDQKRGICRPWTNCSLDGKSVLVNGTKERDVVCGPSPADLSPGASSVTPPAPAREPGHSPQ

B1: VHH1-Fc (Fc fusion)
chain: EVQLVESGGGLVQPGGSLRLSCAASGFTFSSYAMGWVRQAPGKGREFVSAISGNGGSTYYADSVKGRFTISRDNSKNTLYLQMNSLRAEDTAVYYCAAGYSYLYPGGLSTRPSFYDYWGQGTQVTVSSGGGGSGGGGS[human IgG1 Fc with changes not written out]
notes: also called 4-1BB-VHH-Fc fusion protein
Kd: 250 nM
koff: 0.00733 s⁻¹
kon: 29300 M⁻¹ s⁻¹

B2: VHH2-Fc (Fc fusion)
chain: EVQLVESGGGLVQPGGSLRLSCAASGFTFSSYAMGWVRQAPGKGREFVSAISGNGGSTYYADSVKGRFTISRDNSKNTLYLQMNSLRAEDTAVYYCAAGDAYVYPYGVSTDPSFYDYWGQGTQVTVSSGGGGSGGGGS[human IgG1 Fc with changes not written out]
notes: as for B1
Kd: 77.1 nM
koff: 0.00232 s⁻¹
kon: 30200 M⁻¹ s⁻¹

Further lines, results first:

Kd: 96.4 nM
koff: 0.00487 s⁻¹
kon: 50500 M⁻¹ s⁻¹
B3: VHH13-Fc (Fc fusion)
chain: EVQLVESGGGLVQPGGSLRLSCAASGFTFSSYAMGWVRQAPGKGREFVSAISGYGGTTYYADSVKGRFTISRDNSKNTLYLQMNSLRAEDTAVYYCAAGTGYYSRVGVSTDPSFYDYWGQGTQVTVSSGGGGSGGGGS[human IgG1 Fc with changes not written out]
notes: as for B1

Kd: 151 nM
koff: 0.00735 s⁻¹
kon: 48600 M⁻¹ s⁻¹
B4: VHH8-Fc (Fc fusion)
chain: EVQLVESGGGLVQPGGSLRLSCAASGFTFSSYAMGWVRQAPGKGREFVSAISGNGGSTFYADSVKGRFTISRDNSKNTLYLQMNSLRAEDTAVYYCAAGYSYLYPGGLSTRPSFYDYWGQGTQVTVSSGGGGSGGGGS[human IgG1 Fc with changes not written out]
notes: as for B1

Kd: 153 nM
koff: 0.00854 s⁻¹
kon: 55700 M⁻¹ s⁻¹
B5: VHH6-Fc (Fc fusion)
chain: EVQLVESGGGLVQPGGSLRLSCAASGFTFSSYAMGWVRQAPGKGREFVSAISGSGGSTYYADSVKGRFTISRDNSKNTLYLQMNSLRAEDTAVYYCAAGYSYLYPGGLSTRPSFYDYWGQGTQVTVSSGGGGSGGGGS[human IgG1 Fc with changes not written out]
notes: as for B1
